Experimental data from patent US20210228680A1 (ONCOIMMUNE, published 2021).

Target: T1, Siglec-10Fc (human, UniProt Q96LC7 17-546)
T1 construct: The construct is named only as Siglec-10Fc; not shown: Fc part of Siglec-10Fc
T1 sequence (looked up): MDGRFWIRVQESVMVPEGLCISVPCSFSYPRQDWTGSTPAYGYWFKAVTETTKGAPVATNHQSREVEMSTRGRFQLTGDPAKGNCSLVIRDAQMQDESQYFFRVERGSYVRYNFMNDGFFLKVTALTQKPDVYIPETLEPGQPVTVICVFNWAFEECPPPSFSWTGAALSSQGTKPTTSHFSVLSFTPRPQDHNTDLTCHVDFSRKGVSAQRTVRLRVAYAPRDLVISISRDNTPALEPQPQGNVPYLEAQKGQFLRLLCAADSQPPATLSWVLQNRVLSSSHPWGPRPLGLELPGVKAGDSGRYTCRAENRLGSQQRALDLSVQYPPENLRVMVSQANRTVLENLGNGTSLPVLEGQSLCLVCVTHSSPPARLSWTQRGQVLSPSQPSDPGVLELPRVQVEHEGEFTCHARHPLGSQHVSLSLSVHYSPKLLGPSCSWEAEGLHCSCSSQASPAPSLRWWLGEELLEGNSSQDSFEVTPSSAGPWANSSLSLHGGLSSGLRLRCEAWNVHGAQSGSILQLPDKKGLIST
Experiment: Biacore (SPR): CD24Fc immobilised on the chip, Siglec-10Fc injected at different concentrations; steady-state response plotted against concentration

B1: CD24Fc fusion protein (processed, secreted form) (Fc fusion)
chain: SETTTGTSSNSSQSTSNSGLAPNPTNATT[… human IgG1 Fc …]
notes: The protein may be heavily glycosylated; also called CD24Ig; CD24IgG1
Kd: 162 nM
